# Reference: PubChem BioAssay AID588342 (National Center for Advancing Translational Sciences (NCATS), 2011)
# Hit rate of the full screen: of about 360,000 compounds, about 25,000 (6.9%) were called active. The inconclusive results got no clear call from the source; some entries with a clear call stand among them for comparison. The call rests on the fitted dose curve; in most records, active means well fitted inhibition curve with a large enough effect; inconclusive means small, poorly fitted or top-dose-only effect; inactive means flat fitted curve, though single readings scatter. Potencies beside an inconclusive call are fits to weak or partial responses and may not hold up.
# Target: Luciferin 4-monooxygenase (Photinus pyralis) (UniProt P08659)
# Test: qHTS profiling assay for firefly luciferase inhibitor/activator using purifed enzyme and Km concentrations of substrates (counterscreen for miR-21 project); further: nearly all actives have a fitted effect of over 55% in size
# Details: purified FLuc, luminescence inhibition; series mostly up to 57.5 µM
# How it was run: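 Purified P. pyralis luciferase, 10 nM final, with Km-level 10 uM D-luciferin and 10 uM ATP in 50 mM Tris acetate pH 7.5, 10 mM Mg acetate, 0.01% Tween-20, 0.05% BSA; 6-point qHTS titration about 60 µM downward; luminescence read.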
# Potency means the concentration at half of the fitted maximal effect; tags describe the fitted curve by direction and shape.
# UniProt P08659, sequence (P08659 whole entry, looked up): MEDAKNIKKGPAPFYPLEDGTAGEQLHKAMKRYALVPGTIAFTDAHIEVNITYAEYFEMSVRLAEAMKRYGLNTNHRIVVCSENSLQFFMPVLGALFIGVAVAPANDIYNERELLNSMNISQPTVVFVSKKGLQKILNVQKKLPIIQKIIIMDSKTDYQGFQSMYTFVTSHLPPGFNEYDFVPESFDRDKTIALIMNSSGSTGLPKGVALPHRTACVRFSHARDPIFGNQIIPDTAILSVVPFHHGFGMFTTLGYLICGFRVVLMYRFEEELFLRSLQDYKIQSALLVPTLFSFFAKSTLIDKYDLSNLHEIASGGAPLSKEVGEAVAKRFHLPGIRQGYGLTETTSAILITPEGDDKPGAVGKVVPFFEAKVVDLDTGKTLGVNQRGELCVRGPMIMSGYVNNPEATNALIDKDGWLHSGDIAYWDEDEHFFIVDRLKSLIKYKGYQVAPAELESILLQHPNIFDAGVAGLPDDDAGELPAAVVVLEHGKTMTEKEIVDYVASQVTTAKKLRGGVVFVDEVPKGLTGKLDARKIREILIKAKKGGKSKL
row,SMILES,Potency
1,COc1ccc(C(=O)CC(c2ccccc2)S(=O)(=O)c2ccc(C)cc2)cc1 (stereo not drawn),"inconclusive: 1.51 µM [inhibitor, partial curve, poor fit]"
2,CSc1cccc(NC(=O)c2nnn(Cc3ccccc3)c2N)c1,"inconclusive: 19 µM [inhibitor, single point]"
3,Cc1cccn2cc(-c3c[nH]c4ccccc34)nc12,active: 19 µM
4,COc1ccccc1NC(=O)c1ccc2nc(C)sc2c1,"inconclusive: 19 µM [inhibitor, partial curve, poor fit]"
5,COc1ccc(-n2nc3ccc(NC(=O)c4ccc(C#N)cc4F)cc3n2)cc1Cl,inactive
6,COc1cc(CNC23CC4CC(CC(C4)C2)C3)ccc1OCc1ccccc1,inactive
7,COc1ccc(/C=N/N2CCOCC2)cc1COc1ccc(F)cc1,"inconclusive: 23.9 µM [inhibitor, partial curve, poor fit]"
8,Cc1ccc(C(=O)NC(=S)NCc2ccco2)cc1,"inconclusive: 21.3 µM [inhibitor, single point]"
9,Cc1cc(N2CCOCC2)nc2ccc(NC(=O)C3CCC(C)CC3)cc12 (stereo not drawn),inactive
10,CCc1nc(-c2cc(S(=O)(=O)N3CCN(c4ccc(OC)cc4)CC3)ccc2OC)no1,"inconclusive: 9.53 µM [inhibitor, partial curve, poor fit]"
11,Cc1nn(C(C)C(=O)NC2CCC(C)CC2)c(=O)c2c1sc1ccccc12 (stereo not drawn),"inconclusive: 19 µM [inhibitor, partial curve]"
12,O=S(=O)(NCCc1csc2nc(-c3ccccc3)nn12)c1cccs1,inactive
13,COc1cc(/C=C/C(=O)c2ccc3c(c2)OCCO3)cc(OC)c1OC,"inconclusive: 19 µM [inhibitor, partial curve]"
14,O=C(NNC(=O)c1ccc(Cl)c(Cl)c1)c1cccnc1,"inconclusive: 21.3 µM [inhibitor, partial curve, poor fit]"
15,CSC(=NC#N)N1CCN(c2ccc(Cl)cc2)CC1,"inconclusive: 37.9 µM [inhibitor, partial curve, poor fit]"
16,Cc1cc(C)nc(NC(=O)c2cc3ccccc3o2)n1,inactive
17,NS(=O)(=O)c1cccc(NC(=S)NC(=O)C23CC4CC(CC(C4)C2)C3)c1,"inconclusive: 21.3 µM [inhibitor, partial curve, poor fit]"
18,CC(C)Nc1ccc(-c2nc(-c3ccncc3)no2)cc1[N+](=O)[O-],"inconclusive: 9.53 µM [inhibitor, partial curve]"
19,O=C(NCCCn1ccnc1)c1cc(-c2ccc(Br)cc2)on1,"inconclusive: 30.1 µM [inhibitor, partial curve, poor fit]"
20,COc1ccc(N(CC(=O)NC(C)c2ccccc2)S(=O)(=O)c2c(C)nn(C)c2C)cc1 (stereo not drawn),inactive
21,CCc1ccc2nc(NC(=O)Cn3cnc4ccccc4c3=O)sc2c1,"inconclusive: 9.53 µM [inhibitor, partial curve]"
22,CCn1c(C)nc2cc(C(=O)NNC(=O)Nc3cccc(Cl)c3)ccc21,inactive
23,CC(=O)Nc1sc2c(c1C#N)CCC(C)C2 (stereo not drawn),"inconclusive: 42.6 µM [inhibitor, partial curve, poor fit]"
24,CCOc1ccc(CNC(=S)N/N=C/c2ccncc2)cc1,"inconclusive: 37.9 µM [inhibitor, partial curve, poor fit]"
25,Cc1ccc(S(=O)(=O)N(C)c2ccc(OCC(=O)Nc3nnc(C4CC4)s3)cc2)cc1,"inconclusive: 19 µM [inhibitor, partial curve, poor fit]"

row,SMILES,Potency
1,CCOc1ccc(NC(=S)Nc2cc(-c3ccccc3)[nH]n2)cc1,active: 21.3 µM
2,C/C(=N/NC(=O)c1ccoc1C)C12CC3CC(CC(C3)C1)C2,"inconclusive: 30.1 µM [inhibitor, partial curve, poor fit]"
3,Cc1ccc(NC(=O)CN2C(=O)CCc3ccccc32)cc1C,active: 23.9 µM
4,Cc1ccc(S(=O)(=O)N(C)C)cc1NC(=O)c1ccc(-n2cncn2)c([N+](=O)[O-])c1,inactive
5,C=CCN1C=CC(=C/C=C(/C#N)C(=O)OCC)C=C1,active: 2.39 µM
6,COc1ccc(CCNC(=S)Nc2ccccc2)cc1,inactive
7,COc1cccc2cc(C(=O)N3CCc4ccccc4C3)c(=O)oc12,active: 16.9 µM
8,O=C(Nc1ccc2c(c1)CCC2)Nc1ccc(F)cc1F,"inconclusive: 1.9 µM [inhibitor, full curve]"
9,CC(C)(C)Sc1ccc2nc3c(n2c1)CCCC3,"inconclusive: 21.3 µM [inhibitor, partial curve]"
10,c1ccc(-c2ncnc3cc4n(c23)CCC4)cc1,inactive
11,COc1ccc(Nc2nc(-c3cccs3)cs2)c(OC)c1,active: 4.78 µM
12,CCOc1ccccc1NC(=O)c1sc2nc3c(cc2c1N)CN(Cc1ccccc1)CC3,inactive
13,CCOc1ccc(N=C2NC(=O)S/C2=C\c2ccc(N(C)C)cc2)cc1,active: 12 µM
14,NC(=O)NC(=O)C(Nc1ccc(N2CCCCC2)cc1)c1ccccc1 (stereo not drawn),"inconclusive: 15.1 µM [inhibitor, partial curve]"
15,O=C(NCc1ccco1)c1ccc2c(c1)N(Cc1ccc(F)cc1)C(=O)c1ccccc1S2=O (stereo not drawn),inactive
16,Cc1[nH]c(=O)c(C#N)c(C)c1CCC(=O)NCc1cccc(C(F)(F)F)c1,inactive
17,CC(=O)c1sc(NC(=O)C=C(C)C)nc1C,"inconclusive: 26.9 µM [inhibitor, single point]"
18,CSc1ccc(CN(C)C(=O)C(Cc2ccccc2)NC(=O)c2ccccc2)cc1 (stereo not drawn),"inconclusive: 26.9 µM [inhibitor, single point]"
19,O=C(ON=C1CCN(c2ccc([N+](=O)[O-])cc2)CC1)c1ccccc1,"inconclusive: 26.9 µM [inhibitor, partial curve, poor fit]"
20,CCn1c(=O)cc(SCC(=O)N2CCN(Cc3ccc4c(c3)OCO4)CC2)c2ccccc21,"inconclusive: 37.9 µM [inhibitor, single point]"
21,O=C(NNC(=O)c1ccccc1F)c1ccc2[nH]c(=O)c(=O)[nH]c2c1,"inconclusive: 37.9 µM [inhibitor, partial curve, poor fit]"
22,COc1ccccc1NC(CC(=O)c1ccccc1)C(=O)OCC(=O)c1ccc(Br)cc1 (stereo not drawn),active: 2.13 µM
23,Cn1nnc(NC(=O)c2cccc(OCc3ccccc3)c2)n1,inactive
24,CCCC(C)C(=O)Nc1nc(C)c(-c2csc(Nc3ccccc3OC)n2)s1 (stereo not drawn),"inconclusive: 23.9 µM [inhibitor, single point]"
25,CCOC(=O)CSc1nnc(-c2c[nH]c3ccccc23)o1,active: 19 µM

row,SMILES,Potency
1,CCSc1nnc(NC(=O)[C@H](C)NC(=O)c2ccccc2Cl)s1,inactive
2,CN(C)c1nc(N)nc(CSc2nc3cc(Cl)ccc3o2)n1,"inconclusive: 2.69 µM [inhibitor, partial curve, poor fit]"
3,CCCc1nnc(NC(=O)c2ccc([N+](=O)[O-])cc2)s1,"inconclusive: 30.1 µM [inhibitor, partial curve, poor fit]"
4,CC1CCCCC1NC(=O)COC(=O)c1c2c(nc3ccccc13)/C(=C/c1ccco1)CC2 (stereo not drawn),"inconclusive: 10.7 µM [inhibitor, partial curve, poor fit]"
5,CC(C)Nc1nnc(SC(C)C(=O)Nc2ccc(N3CCOCC3)cc2)s1 (stereo not drawn),"inconclusive: 23.9 µM [inhibitor, partial curve, poor fit]"
6,CCOc1ccc(NC(=O)Cn2c(CCC(=O)O)ccc2-c2ccc(Cl)cc2)cc1,"inconclusive: 37.9 µM [inhibitor, partial curve, poor fit]"
7,Cc1c(CC(=O)O)c(=O)oc2cc3occ(-c4ccccc4)c3cc12,"inconclusive: 37.9 µM [inhibitor, single point]"
8,COc1ccc(C(=O)c2c[nH]c(C(=O)N=CN(C)C)c2)cc1,inactive
9,CC(SC1=NCCS1)C(=O)Nc1nnc(-c2ccc(Br)cc2)s1 (stereo not drawn),"inconclusive: 8.49 µM [inhibitor, partial curve, poor fit]"
10,CCN(C(=O)CSc1nc(C)nc2sc(C)c(C)c12)c1ccc(F)cc1,inactive
11,O=C(Nc1ccc2oc(-c3cccnc3)nc2c1)c1ccc(-c2cccc(OC(F)(F)F)c2)o1,inactive
12,COc1ccc(NC(=O)Cn2nc(C)c([N+](=O)[O-])c2C)cn1,inactive
13,O=C1N=C(N2CCCCC2)S/C1=C\c1cn[nH]c1-c1ccccc1,active: 7.57 µM
14,COc1ccc2oc3ccc(OC)cc3c(=O)c2c1,active: 3.01 µM
15,C=CCNc1nc(-c2c(C)nc3sccn23)cs1,"inconclusive: 30.1 µM [inhibitor, single point]"
16,Cc1ccc(Nc2ccc(C(=O)N3CCCC3)cn2)c(C)c1,"inconclusive: 37.9 µM [inhibitor, single point]"
17,Cc1ccc(C(=O)Nc2ccc(-c3csc(C)n3)cc2)cc1,"inconclusive: 2.69 µM [inhibitor, full curve]"
18,Cc1ccccc1Cn1c(C)c(CNCc2ccccc2)c(C(=O)O)c1C,inactive
19,CCc1ccccc1NC(=O)C1CCN(c2nn3c(=O)cc(C)nc3s2)CC1,inactive
20,CN(C(=O)c1cccnc1)c1nnc(-c2cnccn2)s1,"inconclusive: 26.9 µM [inhibitor, single point]"
21,CCOc1cc2c(C#N)c(N3CCCCC3)nc(N)c2c(N)n1,active: 15.1 µM
22,Cc1ccc(-n2ncc3c2ncn2c(C)nnc32)cc1C,active: 5.36 µM
23,O=C(NCc1ccco1)c1cc(-c2ccc3c(c2)OCO3)on1,"inconclusive: 1.2 µM [inhibitor, full curve]"
